The values below come from publication PMC9556525.

The target of this experiment is full-length coilin fused to CFP or YFP (wild type) (human), P38432. Kind of experiment: FRET or BRET; acceptor photobleaching FRET between CFP (donor) and YFP (acceptor) fusions co-expressed in HeLa cells, fixed in 2% paraformaldehyde; apparent FRET efficiency; Fig. 4c, d. The following applies: remark: other sources report otherwise. For orientation: Bioluminescence resonance energy transfer reports proximity on the nanometre scale.

B1: full-length coilin fused to CFP or YFP (wild type) (natural protein)
chain: MAASETVRLRLQFDYPPPATPHCTAFWLLVDLNRCRVVTDLISLIRQRFGFSSGAFLGLYLEGGLLPPAESARLVRDNDCLRVKLEERGVAENSVVISNGDINLSLRKAKKRAFQLEEGEETEPDCKYSKKHWKSRENNNNNEKVLDLEPKAVTDQTVSKKNKRKNKATCGTVGDDNEEAKRKSPKKKEKCEYKKKAKNPKSPKVQAVKDWANQRCSSPKGSARNSLVKAKRKGSVSVCSKESPSSSSESESCDESISDGPSKVTLEARNSSEKLPTELSKEEPSTKNTTADKLAIKLGFSLTPSKGKTSGTTSSSSDSSAESDDQCLMSSSTPECAAGFLKTVGLFAGRGRPGPGLSSQT[sequence of about 200 residues not given]
Regarding B1, the apparent FRET efficiency came out at 20%.
